PMC11995724, “Antibiotic target discovery by integrated phenotypic and activity-based profiling of electrophilic fragments” (Cell chemical biology, 2025)
Among all 3,200 compounds or so, about 110 (3.4%) showed an effect of 50% or more. Some of the results follow.

Tested on: T1, V. cholerae SAD30
T1 construct: SAD30
Set-up: species or system S. aureus MSSA476 (TSB) or V. cholerae SAD30 (LB); 384-well bacterial growth screen at 25 uM, OD600 relative to DMSO control
Conditions: relative growth, OD600, LB; 25 µM; inhibitor

| SMILES | % of control remaining [%] |
| --- | --- |
| CCN(Cc1cccs1)C(=O)CCl [5-F07, 2-chloro-N-ethyl-N-[(thiophen-2-yl)methyl]acetamide] | 97.1735 |
| C=CC(=O)NCc1ccc(C(=O)N2CCNC(=O)CC2)cc1 [3-I04, N-{[4-(5-oxo-1,4-diazepane-1-carbonyl)phenyl]methyl}prop-2-enamide] | 102.676 |
| COc1ccc(NC(=O)C(C#N)=Cc2cccc(Cl)c2Cl)cc1 [8-N04, 2-cyano-3-(2,3-dichlorophenyl)-N-(4-methoxyphenyl)prop-2-enamide] | 74.7111 |
| COc1cc(CN(C(=O)CCl)C2CCCOC2)ccc1C (centres unmarked) [5-E12, 2-chloro-N-[(3-methoxy-4-methylphenyl)methyl]-N-(oxan-3-yl)acetamide] | 97.3416 |
| N#CC(=Cc1c[nH]c2ccccc12)C(=O)Nc1cccc2ncccc12 [9-N08, 2-cyano-3-(1H-indol-3-yl)-N-(quinolin-5-yl)prop-2-enamide] | 87.3555 |
| CC(Cl)C(=O)Nc1c(C(C)C)cccc1C(C)C (centres unmarked) [4-B15, N-[2,6-bis(propan-2-yl)phenyl]-2-chloropropanamide] | 91.4384 |
| N#CC(=Cc1cnn(-c2ccc(Cl)cc2)c1)C(=O)NC1CCCC1 [8-M10, 3-[1-(4-chlorophenyl)-1H-pyrazol-4-yl]-2-cyano-N-cyclopentylprop-2-enamide] | 74.3032 |
| C=CC(=O)NC(CO)c1cccc(OC)c1 (centres unmarked) [2-E22, N-[2-hydroxy-1-(3-methoxyphenyl)ethyl]prop-2-enamide] | 111.657 |
| C=CC(=O)Nc1ccc(C(C)CC(N)=O)cc1 (centres unmarked) [1-I16, 3-[4-(prop-2-enamido)phenyl]butanamide] | 92.6756 |
| C=CC(=O)N1CCC(c2ccc(OC)c(F)c2)C1 (centres unmarked) [3-K19, 1-[3-(3-fluoro-4-methoxyphenyl)pyrrolidin-1-yl]prop-2-en-1-one] | 86.6201 |
| Cc1csc(COC2CCN(C(=O)CCl)C2)n1 (centres unmarked) [5-M08, 2-chloro-1-{3-[(4-methyl-1,3-thiazol-2-yl)methoxy]pyrrolidin-1-yl}ethan-1-one] | 88.2631 |
| C=CC(=O)N1CCCC1Cn1c(C)nc2ccccc21 (centres unmarked) [1-J05, 1-{2-[(2-methyl-1H-1,3-benzodiazol-1-yl)methyl]pyrrolidin-1-yl}prop-2-en-1-one] | 88.9387 |
| Cc1ccc(NC(=O)C(C)Cl)cc1 (centres unmarked) [4-J15, 2-chloro-N-(4-methylphenyl)propanamide] | 98.3394 |
| CC(Cl)C(=O)N1CCCc2c1ccc1c2ncn1C (centres unmarked) [6-B19, 2-chloro-1-{3-methyl-3H,6H,7H,8H,9H-imidazo[4,5-f]quinolin-6-yl}propan-1-one] | 96.6158 |
| CC(Cl)C(=O)NC1CC(=O)N(Cc2ccccc2C(F)(F)F)C1 (centres unmarked) [6-J19, 2-chloro-N-(5-oxo-1-{[2-(trifluoromethyl)phenyl]methyl}pyrrolidin-3-yl)propanamide] | 91.4589 |
| CC(Cl)C(=O)N1CCc2oc(-c3ccccc3)cc2C1 (centres unmarked) [6-B21, 2-chloro-1-{2-phenyl-4H,5H,6H,7H-furo[3,2-c]pyridin-5-yl}propan-1-one] | 74.4715 |
| CC(Cl)C(=O)N1CCN(C(=O)c2cccc(OC(F)F)c2)CC1 (centres unmarked) [5-F17, 2-chloro-1-{4-[3-(difluoromethoxy)benzoyl]piperazin-1-yl}propan-1-one] | 93.643 |
| Cc1c(Cl)cccc1NC(=O)C(C)Cl (centres unmarked) [6-I10, 2-chloro-N-(3-chloro-2-methylphenyl)propanamide] | 83.2686 |
| CN1C(=O)c2ccccc2C1CNC(=O)CCl (centres unmarked) [7-B10, 2-chloro-N-[(2-methyl-3-oxo-2,3-dihydro-1H-isoindol-1-yl)methyl]acetamide] | 88.5511 |
| O=C(CCl)NC(Cc1ccccc1)c1ccccc1 (centres unmarked) [4-L11, 2-chloro-N-(1,2-diphenylethyl)acetamide] | 95.579 |
| C=CC(=O)N(C)CC(=O)Nc1ccc(N2CCC(O)CC2)cc1 [3-P06, N-({[4-(4-hydroxypiperidin-1-yl)phenyl]carbamoyl}methyl)-N-methylprop-2-enamide] | 111.851 |
| C=CC(=O)NCc1ccc(C(=O)N2CCC(NC(C)=O)CC2)cc1 [2-A12, N-{[4-(4-acetamidopiperidine-1-carbonyl)phenyl]methyl}prop-2-enamide] | 97.2981 |
| Cc1cccc(C=C(C#N)C(=O)Nc2ccc(C(=O)O)cc2)c1 [8-M21, 4-[2-cyano-3-(3-methylphenyl)prop-2-enamido]benzoic acid] | 75.7988 |
| C=CC(=O)NCc1cnc2ccsc2c1 [2-D11, N-({thieno[3,2-b]pyridin-6-yl}methyl)prop-2-enamide] | 86.4904 |

| SMILES | % of control remaining [%] |
| --- | --- |
| C=CC(=O)N1CSCC1C(=O)N(C)C (centres unmarked) [1-G03, N,N-dimethyl-3-(prop-2-enoyl)-1,3-thiazolidine-4-carboxamide] | 105.232 |
| CC(Cl)C(=O)Nc1cccc([N+](=O)[O-])c1 (centres unmarked) [6-E08, 2-chloro-N-(3-nitrophenyl)propanamide] | 88.7288 |
| COc1ccc(OC)c(N2C(=O)C=CC2=O)c1 [10-N15, 1-(2,5-dimethoxyphenyl)-2,5-dihydro-1H-pyrrole-2,5-dione] | 24.7808 |
| Cc1noc(C)c1CN(C(=O)CCl)C1CC1 [7-B05, 2-chloro-N-cyclopropyl-N-[(3,5-dimethyl-1,2-oxazol-4-yl)methyl]acetamide] | 89.4763 |
| O=C(CCl)Nc1ccc(-c2ccccc2)cc1 [4-N10, N-{[1,1'-biphenyl]-4-yl}-2-chloroacetamide] | 110.244 |
| CC(Cl)C(=O)Nc1cc(Cl)c(Cl)cc1Cl (centres unmarked) [4-N13, 2-chloro-N-(2,4,5-trichlorophenyl)propanamide] | 94.8889 |
| CCOC(=O)c1[nH]c(C)c(C(=O)CCl)c1C [10-A10, ethyl 4-(2-chloroacetyl)-3,5-dimethyl-1H-pyrrole-2-carboxylate] | 100.058 |
| O=C(CCl)Nc1ccc(S(=O)(=O)N2CCCCC2)cc1 [4-H06, 2-chloro-N-[4-(piperidine-1-sulfonyl)phenyl]acetamide] | 105.758 |
| N#CC(=Cc1ccc(-c2ccccc2Cl)o1)C(=O)N1CCCCC1 [8-F20, 3-[5-(2-chlorophenyl)furan-2-yl]-2-(piperidine-1-carbonyl)prop-2-enenitrile] | 64.378 |
| C=CC(=O)N1CCCC2(CCCCO2)C1 (centres unmarked) [3-O09, 1-{1-oxa-8-azaspiro[5.5]undecan-8-yl}prop-2-en-1-one] | 103.029 |
| O=[N+]([O-])c1ccccc1S(=O)(=O)N1CCSSCC1 [10-N09, 5-(2-nitrobenzenesulfonyl)-1,2,5-dithiazepane] | 91.7982 |
| C=CC(=O)N1CCC(c2nc(C3CCC3)no2)CC1 [2-O04, 1-[4-(3-cyclobutyl-1,2,4-oxadiazol-5-yl)piperidin-1-yl]prop-2-en-1-one] | 93.2838 |
| C=CC(=O)NCCC(=O)N1CCSC(C)(C)C1 [3-G18, N-[3-(2,2-dimethylthiomorpholin-4-yl)-3-oxopropyl]prop-2-enamide] | 90.3253 |
| C=CC(=O)N1CCCC(CNC(C)=O)C1 (centres unmarked) [3-E15, N-{[1-(prop-2-enoyl)piperidin-3-yl]methyl}acetamide] | 93.8541 |
| C=CC(=O)Nc1ccc(-c2nc3cc(C)ccc3o2)cc1 [1-D20, N-[4-(5-methyl-1,3-benzoxazol-2-yl)phenyl]prop-2-enamide] | 92.738 |
| C=CC(=O)NCc1nc2cc(F)ccc2o1 [3-N20, N-[(5-fluoro-1,3-benzoxazol-2-yl)methyl]prop-2-enamide] | 99.853 |
| O=C(CCl)Nc1ccccc1Cc1ccccc1 [4-N22, N-(2-benzylphenyl)-2-chloroacetamide] | 109.726 |
| N#CC(=Cc1ccc(O)cc1)C(=O)Nc1ccc(Cl)cc1Cl [9-G22, 2-cyano-N-(2,4-dichlorophenyl)-3-(4-hydroxyphenyl)prop-2-enamide] | 96.0571 |
| CC(Cl)C(=O)N(Cc1ccsc1)C1CC1 (centres unmarked) [7-G11, 2-chloro-N-cyclopropyl-N-[(thiophen-3-yl)methyl]propanamide] | 77.7135 |
| C=CC(=O)N(C)Cc1nc2c(cnn2C)c(=O)[nH]1 [3-L08, N-methyl-N-({1-methyl-4-oxo-1H,4H,5H-pyrazolo[3,4-d]pyrimidin-6-yl}methyl)prop-2-enamide] | 93.8541 |
| C=CC(=O)Nc1cnc2cc(C)nn2c1 [2-M13, N-{2-methylpyrazolo[1,5-a]pyrimidin-6-yl}prop-2-enamide] | 94.0558 |
| C=CC(=O)N(C)CC(=O)N1CCN(c2ccccc2[N+](=O)[O-])CC1 [2-L04, N-methyl-N-{2-[4-(2-nitrophenyl)piperazin-1-yl]-2-oxoethyl}prop-2-enamide] | 93.1294 |
| CC(C)c1noc2ncc(C(=O)N3CCSSCC3)cc12 [10-F21, 5-[3-(propan-2-yl)-[1,2]oxazolo[5,4-b]pyridine-5-carbonyl]-1,2,5-dithiazepane] | 100.682 |
